{"source": "PubChem BioAssay (NCATS)", "note": "This list was built around the results that the source calls inconclusive (neither active nor inactive); the mix of calls is not that of the screen. Potencies beside an inconclusive call are fits to weak or partial responses and may not hold up. Active and inactive are the calls of the source. Calls follow the shape of the dose curve; as a rule, active = well fitted inhibition curve with a large enough effect; inconclusive = small, poorly fitted or top-dose-only effect; inactive = no such curve, though single readings can be large or run the other way. % is scaled to controls: 0 for no effect and ±100 for the full control effect; potency is read from the fitted curve at half-maximal effect; tags tell the direction and shape of the fitted curve."}
{"molecular_target": "Cytochrome P450 2C9 (Homo sapiens) (UniProt P11712)", "sequence (P11712 whole entry, looked up)": "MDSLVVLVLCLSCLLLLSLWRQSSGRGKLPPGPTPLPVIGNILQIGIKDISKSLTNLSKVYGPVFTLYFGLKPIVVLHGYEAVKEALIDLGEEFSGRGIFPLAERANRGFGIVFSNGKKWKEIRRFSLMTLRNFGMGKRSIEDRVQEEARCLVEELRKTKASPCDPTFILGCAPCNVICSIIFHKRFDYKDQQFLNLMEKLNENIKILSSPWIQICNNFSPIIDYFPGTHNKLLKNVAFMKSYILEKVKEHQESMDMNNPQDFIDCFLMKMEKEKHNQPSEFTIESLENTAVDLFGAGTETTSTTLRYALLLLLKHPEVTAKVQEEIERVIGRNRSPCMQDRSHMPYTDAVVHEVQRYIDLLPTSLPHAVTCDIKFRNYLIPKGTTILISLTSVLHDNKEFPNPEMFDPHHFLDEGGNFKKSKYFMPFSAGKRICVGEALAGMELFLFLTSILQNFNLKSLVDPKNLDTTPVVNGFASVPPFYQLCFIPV", "assay": "qHTS Assay for Inhibitors and Substrates of Cytochrome P450 2C9 (AID 883); also: nearly all actives have a fitted effect of over 60% in size", "settings": "recombinant CYP2C9, luciferin-H luminescence, 60 min; activity change, negative = inhibition: at 11.4 µM (top of the series) unless noted", "in_short": "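10nM CYP2C9 + 100uM Luciferin-H (=KM), 25mM KPO4; cpd 10 min 37C; NADPH regen, 60 min 37C; stop/detect with P450 Glo-Buffer 20 min; luminescence. Norm. to 57uM sulphaphenazole as full inhibition.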"}
{"smiles": "CC(C)C[C@@H](CC(=O)N[C@H](CC(=O)N[C@@H]1CCNC[C@H]1C(=O)N[C@H](CC(=O)N[C@@H](CCC(=O)O)CC(=O)O)Cc1ccccc1)C(C)C)NC(=O)[C@@H]1CCCC[C@H]1N", "activity change, negative = inhibition": "inconclusive: -33.9% [inhibitor] [at 57.1 µM]"}
{"smiles": "C/C(CCC(=O)OC[C@@H]1O[C@H](C#Cc2ccccc2)C=C[C@@H]1Oc1ccc(C)cc1)=N/O[C@@H](C)CN1CCCc2nc(C)c(C)cc21", "Potency": "inconclusive: 2.51 µM [inhibitor, partial curve]"}
{"smiles": "CC1CCC2C(=O)OC(Cc3ccccc3)CN2C1c1ccc(Br)cc1", "note": "(stereo not drawn)", "activity change, negative = inhibition": "inactive: -2.85%"}
{"smiles": "OCC1OC(C#Cc2ccccc2)C=CC1O", "note": "(stereo not drawn)", "Potency": "inactive"}
{"smiles": "COC(=O)C/C=C/C(C)C(OCc1cccc(-c2ccccc2)c1)C1CCCCC1", "note": "(stereo not drawn)", "activity change, negative = inhibition": "inactive: -28.6%"}
{"smiles": "CC(=O)c1ccc(OC2C=CC(C#Cc3ccc(Br)cc3)OC2CO)cc1", "note": "(stereo not drawn)", "activity change, negative = inhibition": "inactive: 6.98%"}
{"smiles": "C#CCCCO/N=C1/C[C@@H](O)[C@@H](O)[C@@H]2[C@H]3C(=O)N(c4ccc(F)cc4F)C(=O)[C@@H]3CC[C@H]12", "Potency": "inconclusive: 1.58 µM [inhibitor, partial curve]"}
{"smiles": "NS(=O)(=O)c1cc(C(=O)O)c(O)c2ccccc12", "Potency": "inconclusive: 3.98 µM [inhibitor, single point]"}
{"smiles": "O=C(O)c1nnsc1-c1ccc(-c2snnc2C(=O)O)cc1", "Potency": "inconclusive: 7.94 µM [inhibitor, single point]"}
{"smiles": "c1ccc(C[C@@H](Nc2cccnc2)c2ccccc2)cc1", "Potency": "inconclusive: 3.16 µM [inhibitor, single point]"}
{"smiles": "COc1cccc([C@@H]2Oc3ccc(OC)cc3/C(=N/O[C@@H](C)CN3CCCc4nc(C)c(C)cc43)[C@@H]2O)c1", "Potency": "inconclusive: 2 µM [inhibitor, partial curve, poor fit]"}
{"smiles": "CC(=O)OCC1OC(C#CCC2CCCCC2)C=CC1OC(C)=O", "note": "(stereo not drawn)", "activity change, negative = inhibition": "inactive: -23.6%"}
{"smiles": "COC(=O)[C@@H]1CC[C@H](C)[C@@H](c2ccc(C)cc2)N1C(=O)c1ccc(/C=N\\OCC[C@@H]2C=C[C@H](OC(C)=O)[C@H](COC(C)=O)O2)cc1", "Potency": "inconclusive: 3.98 µM [inhibitor, single point]"}
